32 sequences from paper PMC12820563, “FoxP3 forms a head-to-head dimer in vivo and stabilizes its multimerization on adjacent microsatellites” can be followed below.

Some of the results follow.

In the test the target is T1, MBP-FoxP1dN (Mus musculus, UniProt P58462 326-579).
T1 sequence: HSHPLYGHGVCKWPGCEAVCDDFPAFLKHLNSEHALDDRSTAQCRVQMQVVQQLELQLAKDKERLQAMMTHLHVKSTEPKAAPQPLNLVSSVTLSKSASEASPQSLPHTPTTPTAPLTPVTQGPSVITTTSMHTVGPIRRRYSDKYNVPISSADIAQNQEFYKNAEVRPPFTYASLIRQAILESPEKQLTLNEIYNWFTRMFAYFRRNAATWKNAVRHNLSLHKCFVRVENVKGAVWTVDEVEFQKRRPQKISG
In words: PD-seq (MBP pull-down with sequencing); 20 mM Tris-HCl pH 7.5, 100 mM NaCl, 1.5 mM MgCl2, 0.4 uM protein, 0.1 uM dsDNA library, 30 min, room temperature, amylose pull-down; high values mean tight binding. The settings on record: protein: recombinant; tags: His6-MBP; chain copies: 2; dsDNA, one strand shown. In short, it runs like this: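 Binding is the reads-per-million enrichment of pull-down relative to input, pooled across replicates. For this, 0.4 µM His6-MBP-tagged mouse FoxP3 or FoxP1 fragment lacking the N-terminus, made in E. coli, was incubated with 0.1 µM Klenow-filled double-stranded degenerate DNA library for 30 min at room temperature in Tris pH 7.5 buffer with NaCl and MgCl2. Complexes bound to amylose resin were washed three times before proteinase K released the DNA for PCR barcoding and Illumina sequencing.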
Turning to “GATGATTGTTCTCCCAGCTGATGAATTTTAGGTTTCGAGTAAACAAATTTTCCTAATCTTTCTGTTCAAGCGCCATCTAC”, the binding signal was 0.926 RPM ratio (pull-down/input).

For the sequence “GATGATTGTTCTCCCAGCTGATGAATTGTCACTATCGAGTAAACAAATTTTCCTAATCTTTCTGTTCAAGCGCCATCTAC”, the binding signal is 1.14 RPM ratio (pull-down/input).

As to “GATGATTGTTCTCCCAGCTGATGAATTAGTTCAGTCGAGTAAACAAATTTTCCTAATCTTTCTGTTCAAGCGCCATCTAC”, the binding signal was 0.955 RPM ratio (pull-down/input).

Turning to “GATGATTGTTCTCCCAGCTGATGAATTACGTTCATCGAGTAAACAAATTTTCCTAATCTTTCTGTTCAAGCGCCATCTAC”, the binding signal was 1.07 RPM ratio (pull-down/input).

“GATGATTGTTCTCCCAGCTGATGAATTCAAAGATTCGAGTAAACAAATTTTCCTAATCTTTCTGTTCAAGCGCCATCTAC”: the binding signal was 0.915 RPM ratio (pull-down/input).

Take “GATGATTGTTCTCCCAGCTGATGAATTACAGCGCTCGAGTAAACAAATTTTCCTAATCTTTCTGTTCAAGCGCCATCTAC”: the binding signal is 0.996 RPM ratio (pull-down/input).

On to “GATGATTGTTCTCCCAGCTGATGAATTTTACCGGTCGAGTAAACAAATTTTCCTAATCTTTCTGTTCAAGCGCCATCTAC”, for which the binding signal is 0.803 RPM ratio (pull-down/input).

Take “GATGATTGTTCTCCCAGCTGATGAATTTGGGCCGTCGAGTAAACAAATTTTCCTAATCTTTCTGTTCAAGCGCCATCTAC”: the binding signal is 0.828 RPM ratio (pull-down/input).

As to “GATGATTGTTCTCCCAGCTGATGAATTCTTATACTCGAGTAAACAAATTTTCCTAATCTTTCTGTTCAAGCGCCATCTAC”, the binding signal is 0.878 RPM ratio (pull-down/input).

Turning to “GATGATTGTTCTCCCAGCTGATGAATTCATTTAATCGAGTAAACAAATTTTCCTAATCTTTCTGTTCAAGCGCCATCTAC”, the binding signal is 1.08 RPM ratio (pull-down/input).

Take “GATGATTGTTCTCCCAGCTGATGAATTACAGAGATCGAGTAAACAAATTTTCCTAATCTTTCTGTTCAAGCGCCATCTAC”: the binding signal was 1.03 RPM ratio (pull-down/input).

“GATGATTGTTCTCCCAGCTGATGAATTAGACACATCGAGTAAACAAATTTTCCTAATCTTTCTGTTCAAGCGCCATCTAC”: the binding signal was 1.15 RPM ratio (pull-down/input).

Regarding “GATGATTGTTCTCCCAGCTGATGAATTTCTACATTCGAGTAAACAAATTTTCCTAATCTTTCTGTTCAAGCGCCATCTAC”, the binding signal is 0.939 RPM ratio (pull-down/input).

For “GATGATTGTTCTCCCAGCTGATGAATTGGAAGTGTCGAGTAAACAAATTTTCCTAATCTTTCTGTTCAAGCGCCATCTAC”, the binding signal is 0.88 RPM ratio (pull-down/input).

With “GATGATTGTTCTCCCAGCTGATGAATTTGGACGCTCGAGTAAACAAATTTTCCTAATCTTTCTGTTCAAGCGCCATCTAC”, the binding signal was 0.926 RPM ratio (pull-down/input).

As to “GATGATTGTTCTCCCAGCTGATGAATTTTAAACATCGAGTAAACAAATTTTCCTAATCTTTCTGTTCAAGCGCCATCTAC”, the binding signal is 1.25 RPM ratio (pull-down/input).

For “GATGATTGTTCTCCCAGCTGATGAATTGCGCCCATCGAGTAAACAAATTTTCCTAATCTTTCTGTTCAAGCGCCATCTAC”, the binding signal is 1.04 RPM ratio (pull-down/input).

Regarding “GATGATTGTTCTCCCAGCTGATGAATTACCAACTTCGAGTAAACAAATTTTCCTAATCTTTCTGTTCAAGCGCCATCTAC”, the binding signal is 1.06 RPM ratio (pull-down/input).

On to “GATGATTGTTCTCCCAGCTGATGAATTTACTCCGTCGAGTAAACAAATTTTCCTAATCTTTCTGTTCAAGCGCCATCTAC”, for which the binding signal is 1.21 RPM ratio (pull-down/input).

For “GATGATTGTTCTCCCAGCTGATGAATTTTAAATTTCGAGTAAACAAATTTTCCTAATCTTTCTGTTCAAGCGCCATCTAC”, the binding signal was 0.924 RPM ratio (pull-down/input).

Consider “GATGATTGTTCTCCCAGCTGATGAATTGCCGTGGTCGAGTAAACAAATTTTCCTAATCTTTCTGTTCAAGCGCCATCTAC”, for which the binding signal was 0.892 RPM ratio (pull-down/input).

Consider “GATGATTGTTCTCCCAGCTGATGAATTTTTTTGTTCGAGTAAACAAATTTTCCTAATCTTTCTGTTCAAGCGCCATCTAC”, for which the binding signal was 0.971 RPM ratio (pull-down/input).

As for “GATGATTGTTCTCCCAGCTGATGAATTCGGTCAATCGAGTAAACAAATTTTCCTAATCTTTCTGTTCAAGCGCCATCTAC”, the binding signal was 1.02 RPM ratio (pull-down/input).

In the case of “GATGATTGTTCTCCCAGCTGATGAATTCTGACGATCGAGTAAACAAATTTTCCTAATCTTTCTGTTCAAGCGCCATCTAC”, the binding signal is 0.853 RPM ratio (pull-down/input).

“GATGATTGTTCTCCCAGCTGATGAATTGACCATATCGAGTAAACAAATTTTCCTAATCTTTCTGTTCAAGCGCCATCTAC”: the binding signal is 1.03 RPM ratio (pull-down/input).

“GATGATTGTTCTCCCAGCTGATGAATTGGAAATGTCGAGTAAACAAATTTTCCTAATCTTTCTGTTCAAGCGCCATCTAC”: the binding signal was 0.907 RPM ratio (pull-down/input).

“GATGATTGTTCTCCCAGCTGATGAATTCGTTTCCTCGAGTAAACAAATTTTCCTAATCTTTCTGTTCAAGCGCCATCTAC”: the binding signal was 0.835 RPM ratio (pull-down/input).

For “GATGATTGTTCTCCCAGCTGATGAATTGACAGTGTCGAGTAAACAAATTTTCCTAATCTTTCTGTTCAAGCGCCATCTAC”, the binding signal is 1.05 RPM ratio (pull-down/input).

For the sequence “GATGATTGTTCTCCCAGCTGATGAATTCGCTTTATCGAGTAAACAAATTTTCCTAATCTTTCTGTTCAAGCGCCATCTAC”, the binding signal was 0.948 RPM ratio (pull-down/input).

Turning to “GATGATTGTTCTCCCAGCTGATGAATTTCGGAGTTCGAGTAAACAAATTTTCCTAATCTTTCTGTTCAAGCGCCATCTAC”, the binding signal is 0.821 RPM ratio (pull-down/input).

Turning to “GATGATTGTTCTCCCAGCTGATGAATTCCGTAACTCGAGTAAACAAATTTTCCTAATCTTTCTGTTCAAGCGCCATCTAC”, the binding signal is 0.881 RPM ratio (pull-down/input).

With “GATGATTGTTCTCCCAGCTGATGAATTGAAGCGCTCGAGTAAACAAATTTTCCTAATCTTTCTGTTCAAGCGCCATCTAC”, the binding signal was 0.842 RPM ratio (pull-down/input).
